Read-outs that look alike come from different tables or passages of the source.
Target: Syk catalytic domain (aa 356-635 with a C-terminal His-tag) (Homo sapiens, UniProt P43405)
Test: In vitro Syk kinase activity by trFRET (Syk catalytic domain)
[1] = Syk IC50, Syk catalytic domain (aa 356-635), trFRET, 0.001 mM ATP
[2] = Syk catalytic domain (aa 356-635), trFRET, 0.001 mM ATP, read-out: Syk IC50

With `Cc1n[nH]c2cc(Nc3nc(NCC(F)F)c4occc4n3)ccc12` [B.5.100] the IC50 [1] was 100 to 1000 nM.
Work on `Cc1cc2ccc(Nc3nc(N4CCC(CNCC(F)F)CC4)c4occc4n3)cc2[nH]c1=O` [B.5.87] yielded an IC50 [1] of 100 to 1000 nM.
For `CC1(C)Oc2ccc(Nc3nc(N4CCC(CN)(CCO)CC4)c4occc4n3)cc2NC1=O` [Example #AD.1, 6-(4-(4-(Aminomethyl)-4-(2-hydroxyethyl)piperidin-1-yl)furo[3,2-d]pyrimidin-2-ylamino)-2,2-dimethyl-2H-benzo[b][1,4]oxazin-3(4H)-one], the IC50 [1] was less than 100 nM.
Molecule `Clc1cc(Nc2nc(N3CCC4(CCCNC4)CC3)c3occc3n2)ccc1N1CCOCC1` [C.1.41] has an IC50 (Syk IC50, class symbols A-D) of less than 100 nM.
`Cc1cc(=O)[nH]c2cc(Nc3nc(N4CCC(CN)CC4)c4occc4n3)ccc12` [C.1.70] was tested, and the IC50 (Syk IC50, class symbols A-D) was less than 100 nM.
`Clc1cc(Nc2nc(NC3CC3)c3occc3n2)ccc1N1CCOCC1` [B.1.1] showed an IC50 [1] of less than 100 nM.
`Cn1cc(Nc2nc(NC3CC3)c3occc3n2)cn1` [B.1.10] showed an IC50 [1] of 100 to 1000 nM.
Work on `CC1(C)Oc2ccc(Nc3nc(N4CCCC(N)C(O)C4)c4occc4n3)cc2NC1=O` (stereo not drawn) [R.1, 6-(4-(4-Amino-3-hydroxyazepan-1-yl)furo[3,2-d]pyrimidin-2-ylamino)-2,2-dimethyl-2H-benzo[b][1,4]oxazin-3(4H)-one] yielded an IC50 [1] of 100 to 1000 nM.
In the case of `Cc1n[nH]c2cc(Nc3nc(N4CCC5(CC4)CNCCO5)c4occc4n3)ccc12` [Q.1.4], the IC50 (Syk IC50, class symbols A-D) is reported as less than 100 nM.
Molecule `Cc1n[nH]c2cc(Nc3nc(N4CCCC(N)CC4)c4occc4n3)ccc12` (stereo not drawn) [C.1.29] has an IC50 (Syk IC50, class symbols A-D) of less than 100 nM.
In the case of `c1nc2ccc(Nc3nc(NC4CC4)c4occc4n3)cc2[nH]1` [C.1.24], the IC50 (Syk IC50, class symbols A-D) is reported as 100 to 1000 nM.
Molecule `CC(=O)N1CCN(c2nc(Nc3ccc(S(N)(=O)=O)cc3)nc3ccoc23)CC1` [B.2.9] has an IC50 [1] greater than 10000 nM.
`Cc1n[nH]c2cc(Nc3nc(N4CC[C@@H](CN)[C@H](O)C4)c4occc4n3)ccc12` [Example #9, (3S,4S)-4-(Aminomethyl)-1-(2-(3-methyl-1H-indazol-6-ylamino)furo[3,2-d]pyrimidin-4-yl)piperidin-3-ol] showed an IC50 [1] of less than 100 nM.
With `c1ccc(CNc2nc(Nc3cc(C4CC4)[nH]n3)c3occc3n2)cc1` [Example #2, N^2-Benzyl-N^4-(5-cyclopropyl-1H-pyrazol-3-yl)furo[3,2-d]pyrimidine-2,4-diamine] the IC50 [1] was 100 to 1000 nM.
For `Cc1cc2ccc(Nc3nc(NC4CC4)c4occc4n3)cc2[nH]c1=O` [B.5.99], the IC50 [1] was less than 100 nM.
In the case of `CC(C)Oc1ccc(Nc2nc(NC3CC3)c3occc3n2)cc1Cl` [B.5.47], the IC50 [1] is reported as 100 to 1000 nM.
For `CC(C)Oc1ccc(Nc2nc(NC3CC3)c3occc3n2)cc1` [B.5.43], the IC50 [1] was 100 to 1000 nM.
Work on `CC1(C)Oc2ccc(Nc3nc(N4CCC5(CCNCC5)C4)c4occc4n3)cc2NC1=O` [C.1.78] yielded an IC50 (Syk IC50, class symbols A-D) of 100 to 1000 nM.
With `c1cc2nc(Nc3ccc4c(c3)CCNC4)nc(NC3CC3)c2o1` [C.1.26] the IC50 (Syk IC50, class symbols A-D) was 100 to 1000 nM.
With `Cc1n[nH]c2cc(Nc3nc(N4CCC5(CCNC5)CC4)c4occc4n3)ccc12` [Example #5, N-(3-Methyl-1H-indazol-6-yl)-4-(2,8-diazaspiro[4.5]decan-8-yl)furo[3,2-d]pyrimidin-2-amine] the IC50 [1] was less than 100 nM.
Molecule `CC1(C)C(=O)Nc2cc(Nc3nc(N4CCC(CNCCS(C)(=O)=O)CC4)c4occc4n3)ccc21` [B.5.68] has an IC50 [1] of less than 100 nM.
`c1cn(-c2ccc(Nc3nc(NC4CC4)c4occc4n3)cc2)cn1` [B.5.121] showed an IC50 [1] of 100 to 1000 nM.
With `NCCCCNc1nc(Nc2ccc3cn[nH]c3c2)nc2ccoc12` [Q.1.2] the IC50 (Syk IC50, class symbols A-D) was less than 100 nM.
`CC(=O)N(C)c1ccc(Nc2nc(N3CCC(CN)CC3)c3occc3n2)cc1` [C.1.7] showed an IC50 (Syk IC50, class symbols A-D) of less than 100 nM.
`O=C1CCc2ccc(Nc3nc(NCC(F)F)c4occc4n3)cc2N1` [B.5.69] gave an IC50 [1] of 100 to 1000 nM.
Molecule `CC1CC1Nc1nc(Nc2ccc3c(c2)NC(=O)C3(C)C)nc2ccoc12` (stereo not drawn) [B.5.96] has an IC50 [1] of less than 100 nM.
`CC1(C)Oc2ccc(Nc3nc(N4CCC(CNCCS(C)(=O)=O)CC4)c4occc4n3)cc2NC1=O` [B.5.65] gave an IC50 [2] of less than 100 nM.
In the case of `Fc1cc(Nc2nc(N3CCC(CNCC(F)F)CC3)c3occc3n2)ccc1N1CCOCC1` [B.5.91], the IC50 [1] is reported as 100 to 1000 nM.
For `CC1(C)C(=O)Nc2cc(Nc3nc(N4CCC(CNCC(F)F)CC4)c4occc4n3)ccc21` [B.5.60], the IC50 [1] was less than 100 nM.
In the case of `CC1(C)Oc2ccc(Nc3nc(N4CCC5(CCN5)CC4)c4occc4n3)cc2NC1=O` [C.1.80], the IC50 (Syk IC50, class symbols A-D) is reported as 100 to 1000 nM.
Work on `COCCCNS(=O)(=O)c1ccc(Nc2nc(NC3CC3)c3occc3n2)cc1` [B.5.10] yielded an IC50 [1] of 100 to 1000 nM.
`CC1(C)Oc2ccc(Nc3nc(N4CCC(O)(CN)CC4)c4occc4n3)cc2NC1=O` [Example #AM.1.1] was tested, and the IC50 (Syk IC50, class symbols A-D) was less than 100 nM.
Molecule `CC1Cc2ccc(Nc3nc(N4CCC(CNCC(F)F)CC4)c4occc4n3)cc2NC1=O` (stereo not drawn) [B.5.92] has an IC50 [1] of less than 100 nM.
Work on `O=S1(=O)Cc2ccc(Nc3nc(NC4CC4)c4occc4n3)cc2C1` [B.1.4] yielded an IC50 [1] of 100 to 1000 nM.
`CNCC1CCN(c2nc(Nc3ccc(N4CCN(C(C)=O)CC4)cc3)nc3ccoc23)CC1` [C.1.2] gave an IC50 (Syk IC50, class symbols A-D) of less than 100 nM.
Molecule `O=c1ccc2ccc(Nc3nc(N4CCC(CNCC(F)F)CC4)c4occc4n3)cc2[nH]1` [B.5.82] has an IC50 [1] of less than 100 nM.
With `CC1(CNc2nc(Nc3ccc4c(c3)NC(=O)C(C)(C)O4)nc3ccoc23)COC1` [B.5.64] the IC50 [2] was 100 to 1000 nM.
`COCCCNS(=O)(=O)c1ccc(Nc2nc(N3CCC(CNCC(F)F)CC3)c3occc3n2)cc1` [B.5.74] gave an IC50 [1] of 100 to 1000 nM.
Work on `CCN(CC)c1nc(Nc2ccc3c(c2)NC(=O)C(C)(C)O3)nc2ccoc12` [B.5.73] yielded an IC50 [2] of 100 to 1000 nM.
Molecule `CS(=O)(=O)N1CCN(c2ccc(Nc3nc(NC4CC4)c4occc4n3)cc2)CC1` [B.5.120] has an IC50 [1] of less than 100 nM.
`CC1(C)Cc2ccc(Nc3nc(N4CCC(CNCC(F)F)CC4)c4occc4n3)cc2NC1=O` [B.5.86] was tested, and the IC50 [1] was less than 100 nM.
Molecule `Cc1n[nH]c2cc(Nc3nc(N4CCC(CN)C4)c4occc4n3)ccc12` (stereo not drawn) [Example #AG.1, 4-(3-(Aminomethyl)pyrrolidin-1-yl)-N-(3-methyl-1H-indazol-6-yl)furo[3,2-d]pyrimidin-2-amine] has an IC50 [1] of less than 100 nM.
With `CC(NCC(F)F)C1CCN(c2nc(Nc3ccc4c(c3)NC(=O)C(C)(C)O4)nc3ccoc23)CC1` (stereo not drawn) [B.5.89] the IC50 [2] was 100 to 1000 nM.
`CC(C)n1ncc2cc(Nc3nc(NC4CC4)c4occc4n3)ccc21` [B.5.15] showed an IC50 [1] of 100 to 1000 nM.
In the case of `CC1(C)Oc2ccc(Nc3nc(N4CCC(O)C4)c4occc4n3)cc2NC1=O` (stereo not drawn) [B.5.132], the IC50 [2] is reported as 1000 to 10000 nM.
With `CC1(C)Oc2ccc(Nc3nc(N4CCC5(CCCNC5)C4)c4occc4n3)cc2NC1=O` (stereo not drawn) [C.1.79] the IC50 (Syk IC50, class symbols A-D) was 100 to 1000 nM.
For `CCCC(=O)Nc1ccc(Nc2nc(N3CCC(CN)CC3)c3occc3n2)cc1` [C.1.8], the IC50 (Syk IC50, class symbols A-D) was 100 to 1000 nM.
With `CC1(C)Oc2ccc(Nc3nc(N4CCC5(CCCNC5)CC4)c4occc4n3)cc2NC1=O` [C.1.59] the IC50 (Syk IC50, class symbols A-D) was less than 100 nM.
Work on `CC(=O)N1CCc2ccc(Nc3nc(NC4CC4)c4occc4n3)cc2CC1` [B.5.57] yielded an IC50 [1] of 100 to 1000 nM.
In the case of `N#Cc1ccc(Nc2nc(NC3CC3)c3occc3n2)cc1` [B.5.130], the IC50 [1] is reported as 100 to 1000 nM.
`CC1(C)Oc2ccc(Nc3nc(N4CCC5(CCNCC5)CC4)c4occc4n3)cc2NC1=O` [C.1.76] gave an IC50 (Syk IC50, class symbols A-D) of 100 to 1000 nM.
Molecule `CC(C)(C#N)c1ccc(Nc2nc(NC3CC3)c3occc3n2)cc1` [B.5.42] has an IC50 [1] of less than 100 nM.
For `CC1(C)Oc2ccc(Nc3nc(N4CCC(C(N)=O)C4)c4occc4n3)cc2NC1=O` (stereo not drawn) [B.5.94], the IC50 [2] was 100 to 1000 nM.
`NCC1CCN(c2nc(Nc3ccc4ccc(=O)[nH]c4c3)nc3ccoc23)CC1` [C.1.63] gave an IC50 (Syk IC50, class symbols A-D) of less than 100 nM.
In the case of `CC1(C)Oc2ccc(Nc3nc(N4CCC(O)CC4)c4occc4n3)cc2NC1=O` [B.5.133], the IC50 [2] is reported as less than 100 nM.
Work on `Clc1cc(Nc2nc(N3CCC4(CCNC4)CC3)c3occc3n2)ccc1N1CCOCC1` [C.1.44] yielded an IC50 (Syk IC50, class symbols A-D) of less than 100 nM.
In the case of `CS(=O)(=O)CCNCC1CCN(c2nc(Nc3ccc4cn[nH]c4c3)nc3ccoc23)CC1` [C.1.21], the IC50 (Syk IC50, class symbols A-D) is reported as 100 to 1000 nM.
